# In publication PMC6919601, “Identification of Plasmodium dipeptidyl aminopeptidase allosteric inhibitors by high throughput screening” (PLoS ONE, 2019):
# Where “and” joins values, the source holds several entries; their conditions need not be identical. Identical values can stand only once. The campaign covered roughly 110,000 compounds. About 230 (0.21%) showed an effect of 50% or more. The list shows a part of the results.
# Molecular target: DPAP1 (Plasmodium falciparum, UniProt Q8IIJ9)
# Test: primary screen, percent inhibition; read by cleavage of a fluorogenic dipeptide substrate; higher = more effect of the substance
# Design: species or system P. falciparum D10 trophozoite lysates; single well
# 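Further: 30 min substrate incubation versus DMSO and 10 µM JCP410 controls.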
# Sequence of DPAP1 (Q8IIJ9 whole entry, looked up): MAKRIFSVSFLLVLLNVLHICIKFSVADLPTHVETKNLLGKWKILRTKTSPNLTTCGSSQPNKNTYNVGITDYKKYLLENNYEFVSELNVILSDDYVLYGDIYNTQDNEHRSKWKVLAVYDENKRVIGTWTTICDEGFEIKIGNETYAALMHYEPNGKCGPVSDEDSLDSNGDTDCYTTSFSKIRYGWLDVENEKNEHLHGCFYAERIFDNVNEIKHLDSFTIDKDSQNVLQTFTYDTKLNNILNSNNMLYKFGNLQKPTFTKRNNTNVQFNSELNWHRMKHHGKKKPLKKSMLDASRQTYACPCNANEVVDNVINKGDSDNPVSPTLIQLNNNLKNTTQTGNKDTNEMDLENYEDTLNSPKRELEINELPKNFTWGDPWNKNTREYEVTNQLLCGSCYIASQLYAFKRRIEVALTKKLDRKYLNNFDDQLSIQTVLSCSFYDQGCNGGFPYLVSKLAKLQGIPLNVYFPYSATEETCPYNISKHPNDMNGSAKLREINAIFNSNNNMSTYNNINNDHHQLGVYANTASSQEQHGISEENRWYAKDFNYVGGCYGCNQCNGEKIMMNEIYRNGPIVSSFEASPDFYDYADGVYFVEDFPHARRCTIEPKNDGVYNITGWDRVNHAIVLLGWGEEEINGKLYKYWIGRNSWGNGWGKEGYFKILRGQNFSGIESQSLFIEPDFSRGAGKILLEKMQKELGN
row,SMILES,% Inhibition @ 10 uM
1,CN1CCN(c2cc(-c3cccnc3)nc3ccccc23)CC1,-0.292%
2,CCOc1ccc(-c2ncccc2O)cc1,-0.415%
3,CSC1=C(C#N)C(c2cccc(O)c2)CC(=O)N1 (centres unmarked),-1.37%
4,O=C(O)CCC(=O)n1ncc2ccc(Cl)cc21,-5.32%
5,CCOc1cnn(-c2ccccc2)c(=O)c1OCC,-2.02%
6,c1ccc(-c2nnc(COc3ccc4oc5ccccc5c4c3)o2)cc1,-3.34%
7,CC(Cc1ccccc1)NC(=O)C(c1ccc(N)cc1)c1ccc(N)cc1 (centres unmarked),-5.31%
8,CS(=O)(=O)N1CCC(C(=O)NCc2ccc(F)cc2)CC1,-1.34%
9,CC1CC(C)CN(C(=O)c2ccc3c(c2)ncn3C2CCCC2)C1 (centres unmarked),-4.97%
10,C/C(Cl)=C/Cn1c(=O)c2c(nc3n2CCS3)n(C)c1=O,-4.8%
11,CCOC(=O)c1cnc2c(C)cccc2c1NCCc1ccc(OC)c(OC)c1,4.18%
12,O=C(Cn1ncc2c3ccccc3nc-2c1O)N1CC=C(c2ccccc2)CC1,11.2%
13,CCCCCC(=O)NC1(CCC)CCCC1,0.132%
14,COCCO/C(O)=C1\C(C)=NC2=C(C(=O)CC(C)(C)C2)C1c1cccc2ccccc12 (centres unmarked),2.45%
15,COC(=O)C1=C(C)N(CCc2ccc(OC)c(OC)c2)C(=O)/C1=C\c1ccc(F)cc1,-3.06%
16,COc1ccc(CNC(=O)c2nc(SC)ncc2Cl)cc1,2.19%
17,CC(C)c1ccccc1OCC(=O)N1CCc2ccccc21,-2.94%
18,Cc1c(CN(C)C(=O)Cn2nc(C(F)(F)F)c(Br)c2C)cnn1C,1.27%
19,COc1cc(Cl)cc(/C=C2\SC(c3ccccc3)=NC2=O)c1O,41.6%
20,O=C(Nc1cc(Cl)cc(Cl)c1)c1cccnc1,-6.82%
21,O=C(NCCc1ccc(Cl)cc1)c1ccc(CS(=O)Cc2ccc(Cl)cc2)o1 (centres unmarked),5.91%
22,Cc1cc(=O)oc2cc(OCC3CC(c4ccccc4)=NO3)ccc12 (centres unmarked),1.91%
23,COc1ccc(C(=O)N(Cc2ccc(C)o2)C2CCS(=O)(=O)C2)cc1 (centres unmarked),-4.64%
24,CCOC(=O)C1CCCCN1Cc1ccc(OC)c(C)c1 (centres unmarked),3.1%
25,c1ccc(C2C3=C(Nc4nc5ccccc5n42)c2ccccc2CCC3)cc1 (centres unmarked),2.4%
26,Cc1ccccc1-c1nc(CS(=O)(=O)CC(=O)N2CCN(Cc3ccccc3)CC2)c(C)o1,-0.138%

row,SMILES,% Inhibition @ 10 uM
1,CCCCCC1CC(O)C=C(C)C1C(=O)OC (centres unmarked),3.25%
2,CC(NC(=O)Nc1cccc2ccccc12)(C(F)(F)F)C(F)(F)F,-2.6%
3,CCOc1ccc(CNCc2c(C(=O)O)n(Cc3ccc(F)cc3)c3cc(OC)ccc23)cc1,0.984%
4,COc1ccc(OCCCCS)cc1,-3.42%
5,Cn1c(=O)[nH]c(=O)c2c1ncn2Cc1ccccc1,-1.5%
6,CCCCn1c(C)c(C(=O)OCC)c2c(CN3CCOCC3)c(O)ccc21,-10.2%
7,COc1ccc(-c2nc(S)c3c(n2)Oc2cc(O)ccc2C3)cc1,9.17%
8,N#CC1=C(N)Oc2cc(N)ccc2C12C(=O)Nc1ccccc12 (centres unmarked),-6.44%
9,CC(=O)c1c(N2CCN(c3ccc(F)cc3)CC2)nc(=S)n(-c2ccccc2)c1C,0.789%
10,O=C(C1CC(=O)N(c2ccccc2)C1)N(Cc1ccccc1)Cc1ccccc1 (centres unmarked),6.35%
11,CCc1c(C)nc2ccc(OC)cc2c1Cl,4.52%
12,Cc1nn(-c2ccc(Br)cc2)c(O)c1/C=N/c1ccccn1,-0.413%
13,Cc1ccc(S(=O)(=O)N2CCC(C(=O)N(Cc3ccccc3)Cc3ccccc3)CC2)cc1,-3.41%
14,CN1CCN(CCCNC(=O)c2cc3sccc3n2C)CC1,-4.85%
15,Cc1nn(-c2ccccc2)c(C)c1C=O,0.569%
16,COc1cccc(NC(=O)c2ccc(Cl)c(Cl)c2)c1,0.823%
17,O=C(COc1cccc2ccccc12)N1CCN(C(=O)COc2cccc3ccccc23)CC1,-2.03%
18,Cc1cc(OCC(=O)Nc2ccc(S(=O)(=O)N3CCCC3)cc2)cc(C)c1Cl,12.4%
19,COc1ccc(CCNC(=O)CN(C)c2nn3c(=O)cc(C)nc3s2)c(OC)c1,-0.281%
20,Cc1nn(CCC(=O)NCCCN2CCc3ccccc3C2)c(=O)c2nn(-c3ccccc3)c(C)c12,-7.13%
21,Cc1cn([C@H]2C=C[C@@H](CO)O2)c(=O)[nH]c1=O,-6.22% and -2.91%
22,Cc1nnc(NC(=O)CSc2nc(C(C)C)ccc2C#N)s1,-3.96%
23,CCN1CCN(c2ccc(NC(=O)C3CC=CCC3C(=O)O)cc2)CC1 (centres unmarked),0.245%
24,CCCOc1ccccc1C(=O)N(Cc1ccccc1F)C1CCS(=O)(=O)C1 (centres unmarked),0.366%
25,Nc1cccc(NC(=O)c2cccc(S(=O)(=O)Nc3cccc(N)c3)c2)c1,-0.0369%
26,COc1ccccc1C(=O)N[C@@H](CS(=O)(=O)Cc1ccccc1)C(=O)NCC#N,-3.49%

row,SMILES,% Inhibition @ 10 uM
1,c1ccc2c(c1)nc(NC1CC1)c1nncn12,5.68%
2,CCCCCCOC(=O)c1[nH]ncc1[N+](=O)[O-],2.13%
3,CNC(=O)c1c(-c2c(Cl)cccc2Cl)noc1C,0.132%
4,O=C1OC(c2ccc(F)cc2)=N/C1=C\c1ccc(Cl)cc1,-5.03%
5,CCOC(=O)C1=C(C)N=c2s/c(=C/c3ccccc3O)c(=O)n2C1c1cccs1 (centres unmarked),21.4%
6,CCOC(=O)NC1c2ccccc2Oc2ccc(OC)cc21 (centres unmarked),-5.62%
7,N#Cc1cc2c(nc1SC1CCCCC1O)CCCC2 (centres unmarked),1.52%
8,Cc1ccc(-n2nc(C)c3c(C)c(CCC(=O)NC4CCCC4)c(C)nc32)cc1,0.953%
9,O=c1oc(-c2ccccc2)nc2sc3c(c12)CCCC3,-3.98%
10,COc1ccc(N(CC(=O)Nc2cccc(C)c2)S(C)(=O)=O)c(OC)c1,1.52%
11,CN(Cc1ccccc1)C(=O)CSc1c2c(nc3ccccc13)CCC2,-3.09%
12,CCOc1cccc(C(=O)Nc2c(C)ccc3nsnc23)c1,0.635%
13,COc1ccccc1-c1nnc2ccc3ccccc3n12,-2.98%
14,CSc1nn2c(=O)c(-c3ccccc3)nnc2s1,2.62%
15,CCOc1ccc(-n2c(SCC(=O)N3CCC(C)CC3)nc3nnc(C)c-3c2N)cc1,4.35%
16,Fc1ccccc1N1CCN(Cc2cccc3ccccc23)CC1,-0.828%
17,CCOC(=O)C1=C(CN2CC(C)CC(C)C2)NC(=O)NC1c1ccccc1 (centres unmarked),0.44%
18,OCCN(Cc1ccccc1)Cc1c(F)cccc1F,4.51%
19,Cc1ccc(OCC(=O)N(Cc2ccccc2)c2ccccn2)cc1C,-3.12%
20,CCC(C)Oc1ccc(/C=C2/NC(=O)N(Cc3ccccc3F)C2=O)cc1OC (centres unmarked),-1.81%
21,COC(=O)c1ccc(-c2ccco2)n1CC(=O)c1ccccc1,-3.75%
22,C=CCOc1c(Br)cc(CNc2cccc(C(=O)O)c2)cc1OC,-3.43%
23,O=C(Nc1ccccc1C(=O)NCCO)c1ccco1,1.89%
24,COc1cc(-c2nc(-c3nonc3N)no2)cc(OC)c1OC,-2.14%
25,O=C(Nc1cccc(Cl)c1)NC1CCCCC1,-0.828%
26,CN1CCN(S(=O)(=O)c2ccccc2[N+](=O)[O-])CC1,1.83%

row,SMILES,% Inhibition @ 10 uM
1,COc1cccc(C(=O)Nc2cc(C)cc(C)c2)c1,-7.46%
2,C=CCc1cc(/C=C2/C(=N)N3C=CSC3=NC2=O)cc(OC)c1OCc1ccc(C)cc1,1.96%
3,O=C1c2cccnc2C(=O)N1Cc1ccc(S(=O)(=O)N2CCC(Cc3ccccc3)CC2)s1,1.14%
4,O=C1N/C(=C/c2cc3c(cc2Cl)OCO3)C(=O)N1Cc1ccc(Br)cc1,-11.7%
5,CCCCNC(=O)c1nc2ncc(Br)cn2n1,-2.58%
6,CCC(C(=O)O)n1c2ccccc2c2cnn(C)c(=O)c21 (centres unmarked),-0.0309%
7,COc1ccc(CCNC(=O)CN(C)S(=O)(=O)c2ccc3nc(C)sc3c2)cc1OC,-5.89%
8,CCOc1cc(C#N)c(NC(=O)c2ccccc2OCC)cc1OCC,-3.34%
9,Cc1cc(NC(=O)CSc2nc3ccc(Br)cc3c3nc4ccccc4n23)[nH]n1,8.15%
10,O=C(CCC1(c2ccccc2)C(=O)c2ccccc2C1=O)NCCN1CCOCC1,-6.94%
11,CC1CCCC(NC(=O)C2(C)CCC(=O)N2CCc2ccc(Cl)cc2)C1C (centres unmarked),0.387%
12,N#CCNC(=O)[C@H](CC1CCCCC1)NC(=O)c1cccc(C(=O)O)c1,-3.49%
13,CC1CC(Nc2ccccc2)c2ccccc2N1C(=O)C1CCCO1 (centres unmarked),-0.0953%
14,COc1ccccc1N1CCN(C(=O)Nc2ccccc2)CC1,1.4%
15,O=C(NCCc1ccccc1)c1cc([N+](=O)[O-])ccc1Cl,2.13%
16,CC(C)NC(=O)C(=O)c1c(-c2ccccc2)[nH]c2ccccc12,-0.834%
17,Cc1c2cnn(CC(=O)NCCC3=CCCCC3)c(=O)c2c(C)n1Cc1ccccc1F,-0.447%
18,CC(C)(C)OC(=O)NC1CCN(S(=O)(=O)c2cccc(S(=O)(=O)N3CCOCC3)c2)CC1,19.6%
19,NC(=O)C1CCN(C(=O)CN2C(=O)c3ccccc3S2(=O)=O)CC1,4.18%
20,COc1ccc(CN2CCN(Cc3ccc(Br)cc3)CC2)cc1OC,1.35%
21,O=C(CCn1nc(-c2ccc(Cl)cc2)ccc1=O)NCc1cccnc1,-1.79%
22,COc1ccccc1NC(=O)c1ccc(C)c(Cl)c1,-18.8%
23,O=S(=O)(c1ccccc1)c1nnn2c1nc(NCc1ccc(F)cc1)c1ccccc12,-6.68%
